The source of these data is PubChem BioAssay AID1346428 (National Center for Advancing Translational Sciences (NCATS), 2018).

Several values for one entry are separate records, joined by “and”; a condition that tells them apart may be missing. Identical values can stand only once. The campaign covered roughly 48,000 compounds. About 1,200 (2.5%) were called active. Roughly 2% stayed inconclusive and do not appear here.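 Rule for the calls: active = activation of at least 60% and not above a set upper limit (about 1 call in 100 departs from these limits); inconclusive = activation of 40% to 60%, or above that upper limit; inactive = activation under 40%.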 The list shows a part of the results.

Chain of UniProt O75388 (O75388 whole entry, looked up): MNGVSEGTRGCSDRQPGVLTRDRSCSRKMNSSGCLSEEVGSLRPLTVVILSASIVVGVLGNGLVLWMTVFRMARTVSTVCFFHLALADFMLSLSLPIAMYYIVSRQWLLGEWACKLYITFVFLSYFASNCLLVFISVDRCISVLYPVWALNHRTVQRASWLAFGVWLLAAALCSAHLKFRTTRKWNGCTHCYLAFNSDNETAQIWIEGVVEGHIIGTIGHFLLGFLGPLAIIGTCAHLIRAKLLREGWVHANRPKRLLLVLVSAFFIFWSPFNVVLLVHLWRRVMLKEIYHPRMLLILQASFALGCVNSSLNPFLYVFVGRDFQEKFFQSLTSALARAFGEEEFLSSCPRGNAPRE

The target of the assay is Probable G-protein coupled receptor 32 (Homo sapiens) (UniProt O75388). Description: qHTS for Agonists of Human Resolvin D1 Receptor DRV1. Note: 0% is about no effect. To be noted: CHO-K1 GPR32 beta-arrestin PathHunter luminescence, 90 min; at 76.9 µM; active compounds read high; zero percent set by DMSO-only wells. Summed up:
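CHO-K1 cells stably expressing ProLink-tagged GPR32 and Enzyme Activator-tagged beta-arrestin were seeded at 2,500 cells/well overnight, exposed to compounds for 90 min at 37 °C, then read by beta-Gal complementation chemiluminescence after 1 h detection reagent.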
On to `CCc1nc2ccc(C(=O)N3CCN(c4cccc(OC)c4)CC3)cc2nc1CC`, for which the activation is inactive: -26.4%.
With `CCc1nnc(NC(=O)CSc2nc3c([nH]c4ccccc43)c(=O)n2-c2ccc(C)cc2)s1`, the activation was inactive: -17.4%.
Consider `O=C(COc1ccccc1)Nc1sc2c(c1C(=O)Nc1ccccc1)CCCCC2`, for which the activation is inactive: 1.83%.
As for `CCOC(=O)C1CCCN(C(=O)Cn2ncc3c4ccccc4n(Cc4ccc(F)cc4)c3c2=O)C1` (configuration not stated), the activation is inactive: -22.3%.
To `Cc1ccc(C)c(-c2ccc(=O)n(Cc3ccc(F)cc3Cl)n2)c1` belongs inactive: -29.4%; to `CCOC(=O)c1ccc(NC(=O)CCn2c(=O)oc3ccccc32)cc1`, inactive: 43.6%.
As to `CC(=O)SCC(CC(=O)c1ccc(C)cc1)C(=O)O` (configuration not stated), the activation is inactive: -70.6%.
On to `CCOC(=O)CNC(=O)CC(c1cc(OC)c(OC)c(OC)c1)N1Cc2ccccc2C1=O` (configuration not stated), for which the activation was inactive: 5.26%.
Consider `CN(Cc1ccccc1)C(=O)Cn1c(=O)c2cccn2c2ccc(F)cc21`, for which the activation is inactive: -14.7%.
Regarding `Cc1ccc2[nH]c(CSc3nnc(NC(=O)COc4ccccc4Cl)s3)cc(=O)c2c1`, the activation was inactive: 13.8%.
For the compound `Cc1ccc(CNC(=O)c2sc3ncnc(N(C)C4CCCCC4)c3c2C)cc1`, the activation was inactive: -6.62%.
Then `CCc1ccc(NC(=O)C2CCCN(S(=O)(=O)c3cccc4cccnc34)C2)cc1` (configuration not stated), with inactive: -21.5%; and `Cc1ccccc1NC(=O)C1CCN(S(=O)(=O)c2ccccc2)CC1`, with inactive: 11.7%.
In the case of `O=S(=O)(NCC(c1ccco1)N1CCOCC1)c1ccc(Cl)cc1` (configuration not stated), the activation was inactive: 1.21%.
To `Cc1ccc(S(=O)(=O)n2nc(-c3ccccc3)nc2NCc2ccccc2Cl)cc1` belongs inactive: -8.72%; to `Cc1cccc(N2C(=O)C(CC(=O)Nc3ccc(F)cc3)N(C3CCCC3)C2=O)c1` (configuration not stated), inactive: -18.7%; to `Cc1ccc(-c2cc(C(=O)N3CCN(S(=O)(=O)c4ccc(Br)s4)CC3)[nH]n2)cc1C`, inactive: -16.1%.
For `Cc1oc2ccc(O)c(CN3CCN(C)CC3)c2c1C(=O)Nc1ccc(C(C)C)cc1`, the activation is inactive: -7.29%.
Then `C#C[C@]1(O)CC[C@H]2[C@@H]3CCC4=Cc5oncc5C[C@]4(C)[C@H]3CC[C@@]21C`, with inactive: 33.3%; and `Cc1ccc(C)c(NC(=O)Cn2c(=O)n(Cc3nc(C)no3)c(=O)c3cc4c(cc32)OCO4)c1`, with inactive: -4.48%; and `COc1ccc(CNc2nc(-c3ccco3)nn2S(=O)(=O)c2ccc3ccccc3c2)cc1OC`, with inactive: -0.342%.
Regarding `Cc1cc(C)n2nc(NCc3ccccc3Cl)nc2n1`, the activation is inactive: -1.65%.
Consider `CCc1ccc(NC(=O)Cn2c(=O)n(Cc3ccc4c(c3)OCO4)c(=O)c3oc4ccccc4c32)cc1`, for which the activation was inactive: -16.5%.
For `Cc1cc2oc(C(=O)NCCc3ccc(S(N)(=O)=O)cc3)cc(=O)c2cc1C`, the activation is inactive: -3.55%.
Take `Cc1ccc(-c2noc(CN(C3CCCCC3)S(=O)(=O)c3ccc(F)cc3)n2)cc1`: the activation is inactive: -23.6%.
For `CC(=O)Nc1ccc(NC(=O)CSc2cn(CC(=O)N(C(C)C)C(C)C)c3ccccc23)cc1`, the activation is inactive: -16.7%.
`COC(=O)c1cc2occc2n1Cc1nc(-c2ccccc2C)oc1C`: the activation was inactive: -24.6%.
As for `CCC(=O)N1CCc2cc(S(=O)(=O)NC(Cc3ccccc3)C(=O)NCc3ccc(C)cc3)ccc21` (configuration not stated), the activation was inactive: -14.4%.
To `COc1ccc(OCCn2cc(C(=O)c3ccco3)c3ccccc32)cc1` belongs inactive: -3.96%; to `CCOc1ccccc1CN1C(=O)c2ccccc2C1C(=O)NC1CCCCCC1` (configuration not stated), inactive: -12.1%.
`COc1cc(C(=O)NCc2nnnn2-c2ccc(C)c(C)c2)cc(OC)c1OC`: the activation is inactive: -5.28%.
Then `CCN1CCN(C(=O)c2ccc3c(c2)N(Cc2c(F)cccc2Cl)C(=O)c2ccccc2S3)CC1`, with inactive: -17.4%; and `Cc1ccccc1COC(=O)c1ccc(-c2nnn(Cc3ccccc3F)n2)cc1`, with inactive: -8.13%.
For `CC(C)c1ccc(NC(=O)CSC2=Nc3ccccc3C3=NC(CCC(=O)NCc4ccc(F)cc4)C(=O)N23)cc1` (configuration not stated), the activation is inactive: 18.4%.
Take `COc1ccc(-c2nc(C)c(CCNC(=O)c3ccco3)s2)cc1`: the activation was inactive: 37.8%.
On to `CCC(C)Sc1nc2c([nH]c3ccccc32)c(=O)n1C` (configuration not stated), for which the activation is inactive: -17.1%.
Take `CC(=O)N1c2ccc(S(=O)(=O)N3CCN(c4cc(Cl)ccc4C)CC3)cc2CC1C` (configuration not stated): the activation is inactive: 7.3%.
Then `O=c1c(-c2cc(-c3ccc(F)cc3)nc3c2COc2ccc(Cl)cc2-3)coc2ccc(F)cc12`, with inactive: -3.89%.
Take `c1ccc(CSc2nnc(C3CCNCC3)o2)cc1`: the activation is inactive: -11.4%.
As for `CCOc1ccc(C(=O)N2CCC(c3nc(-c4ccc(S(=O)(=O)N5CCCC5)cc4)no3)CC2)cc1`, the activation was inactive: -7.8%.
As to `COC(=O)c1ccc(NC(=O)CCn2cccn2)cc1`, the activation was inactive: -1.69%.
As to `Cc1ccc(C(C)C)c(OCC(=O)Nc2cccc(-c3nc4ncccc4o3)c2)c1`, the activation is inactive: -2.06%.
As for `CCOc1ccc(Cc2nccc3cc(OCC)c(OCC)cc23)cc1OCC`, the activation is active: 88.3%.
Regarding `O=c1[nH]c2ccc(NCc3ccc(-c4ccccc4F)o3)cc2[nH]1`, the activation was inactive: -1.33%.
Regarding `COc1cccc(Oc2nc3c(c(=O)n(Cc4ccccc4Cl)c(=O)n3C)n2C)c1`, the activation is inactive: -6.49%.
Consider `CCOc1ccc(-c2cc3c(=O)n(Cc4nc(-c5ccc(OC)cc5OC)oc4C)ccn3n2)cc1Cl`, for which the activation was inactive: -0.931%.
Turning to `COc1ccc(CNC(=O)c2ccc3c(c2)N(Cc2ccccc2)C(=O)c2ccccc2S3=O)cc1` (configuration not stated), the activation is inactive: -0.45%.
To `CCc1ccccc1OCCSc1nc(-c2cccs2)nc2cc(=O)[nH]n12` belongs inactive: 13.1%; to `COc1ccccc1NC(=O)c1nnn(-c2ccc(F)cc2)c1C`, inactive: -4.52%.
Consider `Cc1cc(F)ccc1NC(=O)C(C(C)C)N1Cc2ccccc2C1=O` (configuration not stated), for which the activation was inactive: -16.2%.
Regarding `CC(=O)Nc1ccc(S(=O)(=O)NC2=NCN(C(C)C)CN2)cc1`, the activation is inactive: -5.53%.
Then `COc1ccc(C(=O)N2CC(=O)Nc3ccc(C)cc3C2c2ccc(F)cc2)c(OC)c1` (configuration not stated), with inactive: -9.35%; and `O=c1c(-c2cc(-c3ccc(Cl)cc3)nc3c2COc2ccccc2-3)coc2ccccc12`, with inactive: -3.91%.
With `CN(CC(=O)NCc1ccccc1Cl)S(=O)(=O)c1ccc2c(c1)c(=O)n(C)c(=O)n2C`, the activation is inactive: -3.26%.
Turning to `Cc1sc2ncn(CC(=O)N3CCN(c4ccccc4F)CC3)c(=O)c2c1S(=O)(=O)N1CCN(c2ncccn2)CC1`, the activation is inactive: -4.36%.
On to `Cc1ccc(Cl)cc1N1CCN(C(=O)Cc2c(C(=O)O)c(C)cn2C)CC1`, for which the activation was inactive: -6.2%.
To `CCC(=O)N1CCc2cc(Br)cc(S(=O)(=O)CCC(=O)NCCc3ccc(C)cc3)c21` belongs inactive: -17.4%; to `COc1ccc(Nc2c(-c3ccco3)nc3cccc(C)n23)cc1`, inactive: -16.6%; to `O=C(Nc1ccccc1C(F)(F)F)Nc1c[nH]c(=O)[nH]c1=O`, inactive: -6.79%.
To `COc1cc(OC)c(OC)cc1CN1CCc2nc(N3CCN(c4ccccc4F)CC3)ncc2C1` belongs inactive: 0.238%; to `Cc1ccc2c(C)c(C(=O)N3CCC(c4nc5ccccc5s4)CC3)oc2c1C`, inactive: 38.2%.
Turning to `CCN(CC)CC(=O)Nc1c(C)cccc1C(=O)OC`, the activation is inactive: -12%.
As for `Cc1ccc(OCC(=O)N(Cc2ccc(Cl)cc2)CC2CCCO2)cc1C` (configuration not stated), the activation is inactive: -0.688%.
`Cc1cc(N2CCN(c3cccc(C(F)(F)F)c3)CC2)n2nc(-c3ccccc3C)nc2n1`: the activation was inactive: -16.9%.
As to `CCCOc1ccc(C2C(=O)N(C3CCCCCC3)CC(=O)N2Cc2ccc(OC)cc2)cc1OC` (configuration not stated), the activation is inactive: -34.1%.
Consider `CCN(CC)S(=O)(=O)c1ccc2c(c1)N(CC(=O)NCc1ccc(F)cc1)C(=O)CO2`, for which the activation is inactive: -15.5%.
On to `CCC(C)NC(=O)CSc1nc2c(sc3ccccc32)c(=O)n1CCc1ccccc1` (configuration not stated), for which the activation is inactive: -9.35%.
As for `O=S(=O)(c1cccc(C(F)(F)F)c1)N1CCC(Oc2ccc(-n3cnnn3)cc2)CC1`, the activation is inactive: -3.66%.
To `Cc1ccc2oc(=O)c3cnn(CC(=O)N4CCN(c5cccc(C(F)(F)F)c5)CC4)c3c2c1` belongs inactive: 1.77%; to `COc1cccc(NC(=O)Cn2c(=O)n(Cc3ccccc3)c(=O)c3c2c2cc(C)ccc2n3C)c1`, inactive: -25.4%; to `Cc1cc(C)c2oc(-c3cc(NC(=O)Cc4ccccc4)ccc3Cl)nc2c1`, inactive: 49.4%.
In the case of `COc1ccc(NC(=O)C2=C(C)Nc3c(C(=O)Nc4ccc(C)cc4)cnn3C2c2cc(OC)ccc2OC)cc1` (configuration not stated), the activation is inactive: -16%.
Regarding `CN(C)c1ccc(C2CC(c3c(O)n(C4CCCCC4)c(=O)[nH]c3=O)=Nc3ccccc3S2)cc1` (configuration not stated), the activation is inactive: -3.29%.
`CCCN1CCc2nc(SCC(=O)Nc3ccc(C)c(Cl)c3)[nH]c(=O)c2C1`: the activation is inactive: -6.24%.
To `O=C(Nc1ccc([N+](=O)[O-])cc1Cl)c1cc(Cl)ccc1O` belongs inactive: 11.4% and inactive: 6.98%; to `Cc1ccc2nc(NC(=O)CSc3nccn3Cc3ccccc3)sc2c1`, inactive: -7.08%.
As for `CCOCCc1nnc(NC(=O)C(=O)c2cc(C)n(-c3cccc(Cl)c3)c2C)s1`, the activation was inactive: 6.5%.
As to `COc1cc(NC(=O)c2cc(-c3cccc(Cl)c3)on2)c(OC)cc1Cl`, the activation was inactive: 6.91%.
Turning to `Cc1cccc(Cn2c(=O)n(-c3ccc(Cl)c(Cl)c3)c(=O)c3c(C)c(C)sc32)c1`, the activation was inactive: -0.56%.
Turning to `COc1ccccc1NC(=O)c1nc(SCc2ccc(F)cc2)ncc1Cl`, the activation was inactive: 22.7%.
As to `CCOC(=O)c1cnc2ccccc2c1Nc1ccc(N2CCOCC2)cc1`, the activation was inactive: 2.31%.
Consider `CCc1ccc(N2CCn3c2nc2c3c(=O)n(CCc3ccccc3)c(=O)n2C)cc1`, for which the activation was inactive: 16.7%.
